Reference: the supplement of paper PMC11417369
The other results are listed elsewhere or left out.

Tested on: PfAP2-HC AP2 domain (GST-tagged)
Experiment: gcPBM binding intensity (ln(normalized median fluorescence intensity)); higher = stronger DNA binding
In short: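 Binding intensity values are the highest Masliner-normalised natural-log median intensity among replicate spots of either probe orientation. The binding step lasted 1 h in 1× PBS with 1% milk, 0.2 mg/ml BSA, 0.5% salmon testes DNA and 0.03% Triton X-100, using GST-tagged P. falciparum DNA-binding domains expressed in E. coli on an Agilent 4 × 180k array of primer-extended double-stranded 36-bp intergenic genomic probes plus negative controls. Alexa488 anti-GST antibody and a 488 nm scan detected bound protein.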

Row | Sequence | gcPBM binding intensity (ln)
1 | AAATTTTCTTTTAAGTGTACGAAATTTAGTATTTCA [XGTACX_site7819] | 9.46
2 | TAAACAGTATGCAACGCATGCGTTGTTATATATAAA [TGCATGCA_site232] | 9.79
3 | ATTTTTTTTTTTTTTTTTTTATTCTTAATTCATATA [CACACA_negctrl_site342] | 9.57
4 | TTTTTGTTTGTTCACGACTACATTATGTCATAAATG [CACACA_negctrl_site597] | 9.62
5 | TATATATAAATATATACACACATGAAAATAAATAAA [CACACA_site2514] | 9.85
6 | TTTTTCTATATTTTCTTTTATAAAATATATAATTTT [GTGCAC_negctrl_site345] | 9.57
7 | GTCATATATTATAATAGTACATAAATAATTGATGCC [XGTACX_site3567] | 9.68
8 | ATAGTTATTTTATAGCGTACACAATAAATATATAAA [XGTACX_site4445] | 9.7
9 | CACAGAAATAGAGATACACACACACCGATATTTATG [CACACA_site9313] | 10.8
10 | AGGTAGAAAAAAGACACACACATTATGTATATATAT [CACACA_site377] | 10.1
11 | TTATAGGATCAAGCGCGTACATATCTTTATAAAAGA [XGTACX_site5775] | 9.51
12 | ATATATATATATGTGTGTACATATATGTGGATGGAT [XGTACX_site6240] | 10.1
13 | AATAACAAAATATTAACACACATAACATATTATAAA [CACACA_site2803] | 10.1
14 | TTTTTTCATATAAATACATGCACACAAAAATATCAA [TGCATGCA_site602] | 9.63
15 | TAATGTTTTTTTTGTTTACCAAAAATAATACATTAT [CACACA_negctrl_site203] | 9.53
16 | ATATACAAATATATATATATATATATATATATATAT [CACACA_negctrl_site886] | 9.72
17 | TATTTCTTTATTGGCACACATTTTTTCAATTATATA [CACACA_site4975] | 10.1
18 | GCAAATATGTTGATATGTACATATATATATATATAT [XGTACX_site445] | 9.73
19 | ATTATTTTAATAAAACGTACAAAATATAAATCAAAA [XGTACX_site3770] | 9.65
20 | AAAAAATATACATATACACACATATGTATATATAAT [CACACA_site8676] | 9.86
21 | AGTTTATAGTGATATTGTACATATATATATATATAT [XGTACX_site572] | 9.84
22 | AAAATTTATATAAGCACACAAATATATATTTATATC [CACACA_site3291] | 9.69
23 | TTATTTTTGTTTTGAAGTACAAAAAAATATATTCTT [XGTACX_site6416] | 9.26

Row | Sequence | gcPBM binding intensity (ln)
24 | TATTTATACTCAACTTTCTGTTATTCCAACTTTTTT [XGTACX_negctrl_site410] | 9.73
25 | TTATATATTAATAGTAGTACTATATTGAATCACCCC [XGTACX_site2868] | 9.7
26 | TTTTAAATCTTATATTCCCCACATAAATAGCTCTCT [GTGCAC_negctrl_site665] | 9.39
27 | ACAACAAAAATAAGCACACACAAATATACATACATA [CACACA_site7664] | 11.3
28 | ACATAAGAACATATTTGTACGTATATAAATTAAATA [XGTACX_site6127] | 9.71
29 | AATGAAAAAAAAAAAAAAAAGAAGAAGCAAATGGTA [TGCATGCA_negctrl_site335] | 9.54
30 | ATAAATAATTATATATGTACACATTATGAATGGATA [XGTACX_site8336] | 9.8
31 | AGATTATTTGGACATGCATGTAAAAAAATACGTATA [TGCATGCA_site972] | 9.86
32 | TATGTGTATTTATTTGCATGTTGGTTGTATTTTTTC [TGCATGCA_site479] | 10.4
33 | TCTTCATATGTTTACTGTACGAGAAAAAAAAAAAAA [XGTACX_site6418] | 9.31
34 | TAATAAAATAAAAATTGTACATTTTATATTTATCAA [XGTACX_site5134] | 9.4
35 | ATTTCCCACTTGTGTGTGCGCATGTGTATATATTTA [GTGCAC_site9949] | 10.4
36 | AAAAGTGATAATAAGAGTACATAAAAAATTTATTAT [XGTACX_site8037] | 9.71
37 | TACATATATATAATATGTACTTATAATATGTATTTA [XGTACX_site2162] | 9.51
38 | TTATTTGTTTGTTGGATGCTTTTTTTTTTTTTTTTT [CACACA_negctrl_site1697] | 9.83
39 | TATTCTATACTATATTGTACTATAATATAATATACT [XGTACX_site797] | 9.8
40 | AAATAATTTATAAATAAATACATTGTTACTTTTTCT [GTGCAC_negctrl_site639] | 9.51
41 | CTACACAAGCATTAAACACACAAAAGGGATACTTTG [CACACA_site1083] | 10.2
42 | ATTCAAAAAAATAAAATAAACATAAATAAACATAAA [TGCATGCA_negctrl_site390] | 9.63
43 | GGTATTACTTTTAGCTGTACTTATTTAAAAGTCAAA [XGTACX_site530] | 9.56
44 | ATTTTTTTTTTTTTATGTACATATTAAAAAAAATAT [XGTACX_site1829] | 9.47
45 | ATTTTTACTTTTTATGCATGCTATATTTTCAACCAT [TGCATGCA_site871] | 9.86
46 | ATTAAGGAAAAATTATGTACACAAAAACATATAACA [XGTACX_site2901] | 9.85

Row | Sequence | gcPBM binding intensity (ln)
47 | TATACATGTTCAATTTGTACATATATAAATATATAT [XGTACX_site3554] | 9.58
48 | AAGAACAGATAAAATCGTACGTGAAACATGAACTTG [XGTACX_site7793] | 9.74
49 | TCTGAAATTTTAGGGGTGCCTGGGACTAAAGAAACG [GTGCAC_site9785] | 9.39
50 | TAGAAACCATAAAAATGTACTTAAAAATAGACAATT [XGTACX_site5007] | 9.57
51 | AGACTTTTTATGAGCACACACATATATTATGGAGTA [CACACA_site1040] | 9.81
52 | TTTAATTCCCATATATGTACACAATTTCTTCTATAA [XGTACX_site1465] | 9.66
53 | ATAAATTCATTATATTGTACAAACAAATGAAAAAAA [XGTACX_site8304] | 9.65
54 | ATACATAAATATTATTGTACATATATAATATTAATA [XGTACX_site3514] | 9.61
55 | GGAAAAAGAAATTAATGTACATGTGGATGTATGAGG [XGTACX_site5468] | 9.75
56 | AAAATATTTAAGCATTGTACATATTTTTACAAATAC [XGTACX_site5349] | 9.56
57 | AAAATTCATCCAACAAGTACATAAATATAATATTAT [XGTACX_site4596] | 9.67
58 | TCAAGAGTTATATAAACACACATACATACAGACATA [CACACA_site6998] | 10.1
59 | TAAGAAATTGAGCGCACACATACATCTGTGGGATGG [CACACA_site1548] | 10.3
60 | ATTGTGGATATTCTTACACACAAATTTATTTATAAA [CACACA_site7267] | 9.57
61 | ATGTAAATATTTTGTATGCACTTTGATGCATCTTTT | 9.71
62 | AGTATTCATAAAAATACACACATGGAAAAATAAAAT [CACACA_site1454] | 10.2
63 | AGCAAAAAAAAAAAAAAAAAAAAAATAATAAAAAAT [TGCATGCA_negctrl_site202] | 9.13
64 | GTTTTCTAGTGGGGGTGTACATATTTATATTTAATA [XGTACX_site8378] | 10.4
65 | ATATATATATAATAAGTGCAAAAAAAAGAAAAAAAT | 9.88
66 | TTTTTTTTTTTTGAGGTGCATATATCAGATCAATAT | 9.4
67 | CATATATTAATATGTACACACATTAATAAAAAAAAA [CACACA_site7504] | 9.86
68 | AGCCACTTAAAATACACACACACCAAAAAAAAAAAA [CACACA_site5497] | 10.2
69 | TATTTTATTTATTGAAGTACATTATACAAAAATAAA [XGTACX_site4824] | 9.15

Row | Sequence | gcPBM binding intensity (ln)
70 | AAATAAAATAAAATACGTACCTATTGTGCGTATTAA [XGTACX_site2912] | 9.58
71 | AATAATTTCCAAAAATGTACATATATTTACATATAT [XGTACX_site1790] | 9.86
72 | ATTTTAACTCCCCTTAATCTATTGTATATATATATA [CACACA_negctrl_site208] | 9.69
73 | TAATAAATGTTATTAGTGCATAATAGATAATATATT | 9.74
74 | TATTCGAACAAAAATACATGCACATATGCATAATAA [TGCATGCA_site171] | 9.55
75 | TTTTCCAGTAAATATTTTTTTATAATATTTATATAT [CACACA_negctrl_site387] | 9.53
76 | ATAATATAAATATGCACACAAATTATTACCCAAAAA [CACACA_site2524] | 9.88
77 | GTTATATTCCTACAGAGTACATAAAAATGCACATCA [XGTACX_site1948] | 9.54
78 | AAATATAATATATGCACACATACATACAGATATATA [CACACA_site4235] | 9.91
79 | ATAAATATAGGACACACACACATATTATATATATAT [CACACA_site5658] | 10.5
80 | CACGCGAACATACATACACACACATATATATATATG [CACACA_site7951] | 10.1
81 | ATATATTTTTTCTTAACACACATATATAAAATAAAA [CACACA_site3500] | 9.48
82 | CAAAATATATATACCACACACACATACCTCTATTTG [CACACA_site1853] | 10.4
83 | TATATATATATATACACACACACACCGATATATATA [CACACA_site8813] | 10.5
84 | TATATAAAAAAACAAAGTACATGTTCTTAATCATTT [XGTACX_site8446] | 9.66
85 | AAATGAACAAGTGGCACACACACATCATAACTAATT [CACACA_site5730] | 10.3
86 | TCCATAAAAATGGATACACACACATAATATATATAT [CACACA_site9207] | 10
87 | TATAATATAAGGATCACACACAAACACCCATATATA [CACACA_site4468] | 10.4
88 | CATACATACATACATACACACATACCTATATTTATA [CACACA_site6769] | 10.2
89 | TTAATAACAAAATAAACACACATATATAAATACCCA [CACACA_site4960] | 10
